Measurements published in the supplement of paper PMC4967469.

Tests used:
Assay in all cases: Viability of human cancer cell lines after 72 h of drug (GDSC screen)
CUDC-101 = compound: C#Cc1cccc(Nc2ncnc3cc(OC)c(OCCCCCCC(=O)NO)cc23)c1 [CUDC-101]; settings: top dose 5.12 µM; top dose inferred
Experimental: (§1)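 Human cancer cell lines in 384-well plates, medium with 10% serum, drug for 72 h over a 256-fold dose range (nine 2-fold or five 4-fold steps up to the top dose). Adherent lines were fixed and stained with the nucleic acid dye Syto60, suspension lines read with resazurin; signal relative to control wells, capped at 0 and 100%. One two-parameter sigmoid per drug and line, fitted in a mixed model over all curves with the slope shared within a line.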

RDEA119 = compound: COc1cc(F)c(F)c(Nc2ccc(I)cc2F)c1NS(=O)(=O)C1(C[C@H](O)CO)CC1 [RDEA119]; settings: top dose 5 µM, top dose inferred
Experimental: as §1

OSU-03012 = compound: NCC(=O)Nc1ccc(-n2nc(C(F)(F)F)cc2-c2ccc3c(ccc4ccccc43)c2)cc1 [OSU-03012]; settings: top dose 16 µM; top dose inferred
Experimental: as §1

QS11 = compound: OC[C@H](Cc1ccccc1)Nc1nc(Oc2ccc3c(c2)CCC3)nc2c1ncn2Cc1ccc(-c2ccccc2)cc1 [QS11]; settings: top dose 10.24 µM
Experimental: as §1

JNK-9L = compound: Fc1cc(-c2ccnc(Nc3ccc(-n4cnc(N5CCOCC5)n4)cc3)n2)cc(N2CCOCC2)c1 [JNK-9L]; settings: top dose 5.12 µM; top dose inferred
Experimental: as §1

5-Fluorouracil = compound: O=c1[nH]cc(F)c(=O)[nH]1 [5-Fluorouracil]; settings: top dose 32 µM; top dose inferred
Experimental: as §1

AC220 = compound: CC(C)(C)c1cc(NC(=O)Nc2ccc(-c3cn4c(n3)sc3cc(OCCN5CCOCC5)ccc34)cc2)no1 [AC220]; settings: top dose 1.024 µM; top dose inferred
Experimental: as §1

Cell Line | AUC (CUDC-101) | IC50 (CUDC-101) [µM] | AUC (RDEA119; screen: GDSC drug entry 1014) | IC50 (RDEA119; screen: GDSC drug entry 1014) [µM] | AUC (RDEA119; screen: GDSC drug entry 1526) | IC50 (RDEA119; screen: GDSC drug entry 1526) [µM] | AUC (OSU-03012) | IC50 (OSU-03012) [µM] | AUC (QS11) | IC50 (QS11) [µM] | AUC (JNK-9L) | IC50 (JNK-9L) [µM] | AUC (5-Fluorouracil) | IC50 (5-Fluorouracil) [µM] | AUC (AC220) | IC50 (AC220) [µM]
HH (T-cell leukaemia, suspension) | 0.494 | 0.306 | 0.966 | > 5 | 0.913 | > 5 | 0.708 | 4.75 | 0.925 | > 10.2 | 0.523 | 0.376 | 0.646 | 5.8 | 0.944 | > 1.02
8-MG-BA (glioma, adherent) | 0.565 | 0.476 | 0.944 | > 5 | 0.9 | > 5 | 0.558 | 1.42 | 0.787 | 4.15 | 0.315 | 0.101 | 0.859 | 23.9 | 0.985 | > 1.02
MFM-223 (breast, adherent) | 0.623 | 0.694 | 0.927 | > 5 | 0.923 | > 5 | 0.876 | 15.6 | 0.987 | > 10.2 | 0.899 | > 5.12 | 0.966 | > 32 | 0.989 | > 1.02
ES6 (Ewing sarcoma, adherent) | 0.616 | 0.722 | 0.98 | > 5 | 0.952 | > 5 | 0.598 | 1.99 | 0.863 | > 10.2 | 0.552 | 0.457 | 0.735 | 11.2 | 0.974 | > 1.02
MES-SA (uterus, adherent) | 0.88 | 3.98 | 0.959 | > 5 | 0.921 | > 5 | 0.77 | 5.22 | 0.934 | > 10.2 | 0.571 | 0.485 | 0.992 | > 32 | 0.986 | > 1.02
TOV-112D (ovary, adherent) | 0.519 | 0.361 | 0.945 | > 5 | 0.839 | 3.44 | 0.511 | 1.07 | 0.83 | 6.49 | 0.498 | 0.316 | 0.817 | 18.1 | 0.907 | > 1.02
PE/CA-PJ15 (head and neck, adherent) | 0.581 | 0.545 | 0.672 | 0.981 | 0.657 | 0.889 | 0.835 | 11.8 | 0.986 | > 10.2 | 0.875 | > 5.12 | 0.908 | > 32 | 0.985 | > 1.02
SW1710 (bladder, adherent) | 0.615 | 0.672 | 0.76 | 1.81 | 0.807 | 2.67 | 0.476 | 0.856 | 0.704 | 2.46 | 0.441 | 0.219 | 0.955 | > 32 | 0.984 | > 1.02
KYSE-520 (oesophagus, adherent) | 0.72 | 1.7 | 0.784 | – | 0.837 | > 5 | 0.823 | 14.1 | 0.964 | > 10.2 | 0.607 | 0.698 | 0.944 | > 32 | 0.978 | > 1.02
SW1088 (glioma, adherent) | 0.935 | > 5.12 | – | – | 0.898 | > 5 | 0.857 | > 16 | 0.884 | > 10.2 | 0.897 | > 5.12 | 0.972 | > 32 | 0.966 | > 1.02
OCI-M1 (acute myeloid leukaemia, suspension) | 0.346 | 0.134 | 0.903 | 3.79 | 0.945 | > 5 | 0.819 | 6.48 | 0.907 | 8.05 | 0.737 | 1.24 | 0.764 | 9.13 | 0.951 | > 1.02
G-361 (melanoma, adherent) | 0.534 | 0.394 | 0.358 | 0.129 | 0.555 | 0.439 | 0.765 | 5.64 | 0.683 | 2.03 | 0.469 | 0.264 | 0.838 | 20.4 | 0.952 | > 1.02
HCC-56 (large intestine, adherent) | 0.349 | 0.121 | 0.342 | 0.113 | 0.672 | 0.958 | 0.722 | 4.33 | 0.878 | > 10.2 | 0.568 | 0.492 | 0.767 | 12.2 | 0.852 | 0.825
MIA-PaCa-2 (pancreas, adherent) | 0.688 | – | 0.509 | 0.332 | – | – | 0.703 | 3.98 | 0.851 | 9.06 | 0.609 | 0.656 | 0.975 | > 32 | 0.984 | > 1.02
KOSC-2 (head and neck, adherent) | 0.455 | 0.24 | – | – | 0.79 | 2.33 | 0.757 | 5.73 | 0.985 | > 10.2 | 0.695 | 1.16 | 0.959 | > 32 | 0.985 | > 1.02
SK-MEL-30 (melanoma, adherent) | 0.545 | 0.427 | – | – | 0.456 | 0.236 | 0.58 | 1.67 | 0.837 | 7.39 | 0.49 | 0.299 | 0.842 | 24.3 | 0.985 | > 1.02
U031 (kidney, adherent) | 0.871 | > 5.12 | 0.985 | > 5 | 0.782 | 2.16 | 0.762 | 5.93 | 0.976 | > 10.2 | 0.506 | 0.332 | 0.85 | 25.6 | 0.983 | > 1.02
SNU-423 (liver, adherent) | 0.38 | 0.141 | 0.835 | 4.12 | 0.797 | 2.83 | 0.736 | 5.36 | 0.902 | > 10.2 | 0.541 | 0.421 | 0.716 | 9.16 | 0.979 | > 1.02

IC50 is the fitted dose that halves viability relative to control wells, and lower means more sensitive; a fit beyond the top or the lowest dose is shown as a bound at that dose. For AUC the same curve is integrated over the 256-fold range of doses and scaled to a fraction: 1 means no effect, lower means more sensitive. For some assays here: Where the top dose is marked as inferred, it comes from the curve model; the source does not state it. For some assays here: Where an entry number is given, a second screen of the drug exists; the two often differ.
